# The other results are listed elsewhere or left out.
# B1: LTL (Lotus tetragonolobus), P19664 (protein)
# chain: VSFNYTEFKDDGSLILQGDAKIWTDGRLAMPTDPLVNNPKTTRSAGRALYATPVPIWDSATGNVASFVTSFNFLFVIRELKYTPTDGLVFFLAPVGTEIPSGSTGGFLGIFDGSNGFNQFVAVEFDSYHNIWDPKSLRSSHVGIDVNSIMSLKAVNWNRVSGSLEKATIIYDSQTNILSVVMTSQNGQITTIYGTIDLKTVLPEKVSVGFSATTGNPEREKHDIYSWSFTSTLKEPEEQA
# What was measured:
# Experiment in all cases: glycan array binding signal (z-score within array); higher = stronger binding
# Settings in all cases: glycan notation: IUPAC condensed, linker removed
# [1] = biological target: Neu5Ac(a2-6)GlcNAc(b1-4)GlcNAc
# Method in brief: (§1)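 Negative Z-scores can be read as non-binding. The Z-score is calculated within each array and then averaged across arrays of one protein sequence at different concentrations or buffers and across linkers. Arrays, 3228 in all, were curated from the Consortium for Functional Glycomics database and kept only where the protein sequence was available.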
# [2] = biological target: Neu5Ac(a2-6)GlcNAc(b1-4)GlcNAc(b1-4)GlcNAc
# Method in brief: as §1
# Neu5Ac(a2-8)Neu5Ac = biological target: Neu5Ac(a2-8)Neu5Ac
# Method in brief: as §1
# [3] = biological target: Neu5Ac(a2-8)Neu5Ac(a2-3)Gal(b1-3)GalNAc(b1-4)[Neu5Ac(a2-3)]Gal(b1-4)Glc
# Method in brief: as §1
# [4] = biological target: Neu5Ac(a2-8)Neu5Ac(a2-3)Gal(b1-3)GalNAc(b1-4)[Neu5Ac(a2-8)Neu5Ac(a2-3)]Gal(b1-4)Glc
# Method in brief: as §1
# [5] = biological target: Neu5Ac(a2-8)Neu5Ac(a2-3)Gal(b1-4)Glc
# Method in brief: as §1
# [6] = biological target: Neu5Ac(a2-8)Neu5Ac(a2-3)Gal(b1-4)GlcNAc
# Method in brief: as §1
# [7] = biological target: Neu5Ac(a2-8)Neu5Ac(a2-3)[Gal(b1-3)GalNAc(b1-4)]Gal(b1-4)Glc
# Method in brief: as §1
# [8] = biological target: Neu5Ac(a2-8)Neu5Ac(a2-3)[GalNAc(b1-4)]Gal(b1-4)Glc
# Method in brief: as §1
# [9] = biological target: Neu5Ac(a2-8)Neu5Ac(a2-8)Neu5Ac
# Method in brief: as §1
# [10] = biological target: Neu5Ac(a2-8)Neu5Ac(a2-8)Neu5Ac(a2-3)Gal(b1-4)Glc
# Method in brief: as §1
# [11] = biological target: Neu5Ac(a2-8)Neu5Ac(a2-8)Neu5Ac(a2-3)[Gal(b1-3)GalNAc(b1-4)]Gal(b1-4)Glc
# Method in brief: as §1
# [12] = biological target: Neu5Ac(a2-8)Neu5Ac(a2-8)Neu5Ac(a2-3)[GalNAc(b1-4)]Gal(b1-4)Glc
# Method in brief: as §1
# [13] = biological target: Neu5Ac(a2-8)Neu5Ac(a2-8)Neu5Ac(a2-8)Neu5Ac(a2-3)[GalNAc(b1-4)]Gal(b1-4)Glc
# Method in brief: as §1
# [14] = biological target: Neu5Ac(a2-8)Neu5Gc(a2-3)Gal(b1-4)GlcNAc
# Method in brief: as §1
# Neu5Ac(b1-6)GalNAc = biological target: Neu5Ac(b1-6)GalNAc
# Method in brief: as §1
# [15] = biological target: Neu5Ac(b2-6)Gal(b1-4)GlcNAc
# Method in brief: as §1
# Neu5Ac(b2-6)GalNAc = biological target: Neu5Ac(b2-6)GalNAc
# Method in brief: as §1
# [16] = biological target: Neu5Ac9Ac(a2-3)Gal(b1-3)GlcNAc
# Method in brief: as §1
# [17] = biological target: Neu5Ac9Ac(a2-3)Gal(b1-4)GlcNAc
# Method in brief: as §1
# [18] = biological target: Neu5Ac9Ac(a2-6)Gal(b1-4)GlcNAc
# Method in brief: as §1
# [19] = biological target: Neu5Gc(a2-3)Gal(b1-3)GlcNAc
# Method in brief: as §1
# [20] = biological target: Neu5Gc(a2-3)Gal(b1-3)[Fuc(a1-4)]GlcNAc
# Method in brief: as §1
# Neu5Gc(a2-3)Gal(b1-4)Glc = biological target: Neu5Gc(a2-3)Gal(b1-4)Glc
# Method in brief: as §1
# [21] = biological target: Neu5Gc(a2-3)Gal(b1-4)GlcNAc
# Method in brief: as §1
# [22] = biological target: Neu5Gc(a2-3)Gal(b1-4)GlcNAc(b1-3)Gal(b1-4)GlcNAc(b1-2)Man(a1-3)[Neu5Gc(a2-3)Gal(b1-4)GlcNAc(b1-3)Gal(b1-4)GlcNAc(b1-2)Man(a1-6)]Man(b1-4)GlcNAc(b1-4)GlcNAc
# Method in brief: as §1
# [23] = biological target: Neu5Gc(a2-3)Gal(b1-4)[Fuc(a1-3)]GlcNAc
# Method in brief: as §1
# [24] = biological target: Neu5Gc(a2-3)Gal(b1-4)[Fuc(a1-4)]GlcNAc
# Method in brief: as §1
# [25] = biological target: Neu5Gc(a2-6)Gal(b1-4)GlcNAc
# Method in brief: as §1
# Neu5Gc(a2-6)GalNAc = biological target: Neu5Gc(a2-6)GalNAc
# Method in brief: as §1
# [26] = biological target: Neu5Gc(a2-8)Neu5Ac(a2-3)Gal(b1-4)GlcNAc
# Method in brief: as §1
# [27] = biological target: Neu5Gc(a2-8)Neu5Gc(a2-3)Gal(b1-4)GlcNAc
# Method in brief: as §1
# [28] = biological target: Neu5Gc(a2-8)Neu5Gc(a2-3)Gal(b1-4)GlcNAc(b1-3)Gal(b1-4)GlcNAc
# Method in brief: as §1
# [29] = biological target: Neu5Gc(a2-8)Neu5Gc(a2-6)Gal(b1-4)GlcNAc
# Method in brief: as §1
# [30] = biological target: Neu5Gc(b2-6)Gal(b1-4)GlcNAc
# Method in brief: as §1
binder,measurement,setting,value
B1,glycan array binding signal (z-score),[1],-0.268
same,glycan array binding signal (z-score),[2],-0.082
same,glycan array binding signal (z-score),Neu5Ac(a2-8)Neu5Ac,-0.069
same,glycan array binding signal (z-score),[3],-0.472
same,glycan array binding signal (z-score),[4],-0.211
same,glycan array binding signal (z-score),[5],-0.262
same,glycan array binding signal (z-score),[6],-0.398
same,glycan array binding signal (z-score),[7],-0.265
same,glycan array binding signal (z-score),[8],-0.338
same,glycan array binding signal (z-score),[9],-0.193
same,glycan array binding signal (z-score),[10],-0.267
same,glycan array binding signal (z-score),[11],0.131
same,glycan array binding signal (z-score),[12],0.153
same,glycan array binding signal (z-score),[13],0.037
same,glycan array binding signal (z-score),[14],-0.455
same,glycan array binding signal (z-score),Neu5Ac(b1-6)GalNAc,-0.326
same,glycan array binding signal (z-score),[15],-0.162
same,glycan array binding signal (z-score),Neu5Ac(b2-6)GalNAc,-0.262
same,glycan array binding signal (z-score),[16],-0.279
same,glycan array binding signal (z-score),[17],0.203
same,glycan array binding signal (z-score),[18],-0.401
same,glycan array binding signal (z-score),[19],-0.203
same,glycan array binding signal (z-score),[20],-0.342
same,glycan array binding signal (z-score),Neu5Gc(a2-3)Gal(b1-4)Glc,-0.061
same,glycan array binding signal (z-score),[21],-0.225
same,glycan array binding signal (z-score),[22],-0.032
same,glycan array binding signal (z-score),[23],-0.19
same,glycan array binding signal (z-score),[24],-0.006
same,glycan array binding signal (z-score),[25],0.117
same,glycan array binding signal (z-score),Neu5Gc(a2-6)GalNAc,0.099
same,glycan array binding signal (z-score),[26],-0.207
same,glycan array binding signal (z-score),[27],-0.326
same,glycan array binding signal (z-score),[28],-0.15
same,glycan array binding signal (z-score),[29],-0.252
same,glycan array binding signal (z-score),[30],0.212

# From the supplement of paper PMC8728848
